The results in this text go back to PubChem BioAssay AID1346428 (National Center for Advancing Translational Sciences (NCATS), 2018).

Out of some 48,000 compounds screened, about 1,200 (2.5%) were called active. Roughly 2% stayed inconclusive and do not appear here.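 Rule for the calls: active = activation of at least 60% and not above a set upper limit (about 1 call in 100 departs from these limits); inconclusive = activation of 40% to 60%, or above that upper limit; inactive = activation under 40%.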 The list shows a part of the results.

Sequence of UniProt O75388 (O75388 whole entry, looked up): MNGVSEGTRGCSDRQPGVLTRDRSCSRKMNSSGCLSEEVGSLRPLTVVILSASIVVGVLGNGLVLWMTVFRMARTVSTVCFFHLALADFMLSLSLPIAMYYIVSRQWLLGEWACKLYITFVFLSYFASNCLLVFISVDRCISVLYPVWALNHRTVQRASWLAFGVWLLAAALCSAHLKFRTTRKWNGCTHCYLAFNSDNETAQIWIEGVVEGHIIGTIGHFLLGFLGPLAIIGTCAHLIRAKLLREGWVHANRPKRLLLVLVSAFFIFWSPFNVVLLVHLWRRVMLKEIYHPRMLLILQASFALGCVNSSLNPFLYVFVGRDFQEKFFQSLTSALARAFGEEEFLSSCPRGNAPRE

For this test, the target named is Probable G-protein coupled receptor 32 (Homo sapiens) (UniProt O75388). Description: qHTS for Agonists of Human Resolvin D1 Receptor DRV1. Note: 0% is about no effect. Conditions: CHO-K1 GPR32 beta-arrestin PathHunter luminescence, 90 min; at 76.9 µM; hits give high values; zero percent set by DMSO-only wells. In outline:
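Cells are plated overnight, treated with compounds in DMSO for 90 minutes at 37 °C, and developed with PathHunter detection reagent for 1 hour before luminescence is read; signal reflects beta-arrestin binding to GPR32 in engineered CHO-K1 cells.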
A general note: Quantitative high-throughput screening tests each substance at several concentrations.
Take `COC(=O)c1ccc(Cn2cnc3nc4c(cc3c2=O)CCCC4)cc1`: the activation was inactive: -12.6%.

With `Cc1ccc(/C=C/c2onc(C)c2S(=O)(=O)N2CCC(C(=O)Nc3cc(C)ccc3C)CC2)cc1`, the activation is inactive: -12.4%.

For the compound `COc1ccccc1CCNC(=O)C(=O)NCC(c1cccs1)S(=O)(=O)c1cccs1` (stereo not drawn), the activation was inactive: -1.2%.

In the case of `CCOc1ccc(S(=O)(=O)Nc2cccc(-c3ccc(OCC)nn3)c2)cc1`, the activation is inactive: 9.45%.

As for `Cc1cccc(NC(=O)c2c(C)cc(C)nc2SCC(=O)c2ccccc2)c1`, the activation was inactive: -22.1%.

Take `Cc1cc(C)c2oc(C(=O)Nc3ccc(S(=O)(=O)N4CCCCCC4)cc3)cc(=O)c2c1`: the activation was inactive: -9.3%.

For `O=C(Nc1ccc(F)cc1C(F)(F)F)C1CCN(c2ncccn2)CC1`, the activation was inactive: -0.249%.

Take `COc1ccc(S(=O)(=O)c2cn(C)c3ccc(C)cc3c2=O)cc1`: the activation was inactive: 6.94%.

In the case of `Cc1cccc(NC(=O)COC(=O)CCCC2=NS(=O)(=O)c3ccccc3N2)c1`, the activation is inactive: 13.1%.

Turning to `O=C(Nc1ccc(S(=O)(=O)N2CCCCC2c2cccnc2)cc1)c1ccc(Br)cc1` (stereo not drawn), the activation was inactive: 20.2%.

As for `CCC1CN(C(=O)N2CCC(C(=O)NCc3cccc(OC)c3OC)CC2)c2cc(C)ccc2O1` (stereo not drawn), the activation is inactive: -9.96%.

Take `CCC1=Nc2cc(C(=O)NC3CCC(C)CC3)ccc2Sc2ccc(C)cc21` (stereo not drawn): the activation was inactive: -8.14%.

For the compound `CCOc1ccc(OCC)c(Nc2ccc3cc(S(=O)(=O)N4CCCC4)ccc3n2)c1`, the activation is inactive: -16.6%.

As for `CCC(C)NC(=O)CSc1nc2n[nH]c(C)c2c(=N)n1-c1cc(Cl)ccc1C` (stereo not drawn), the activation is inactive: 2.02%.

On to `O=C(C1CCCN(S(=O)(=O)c2cccc3nsnc23)C1)N1CCN(c2ccccc2F)CC1` (stereo not drawn), for which the activation is inactive: 0.426%.

Consider `COc1ccccc1NC(=O)c1sc2nc(C)c(C(=O)Nc3ccc(C)cc3C)c(-c3ccco3)c2c1N`, for which the activation was inactive: -24.2%.

With `CC(C)c1ccc(NC(=O)c2ccc(F)c(S(=O)(=O)N3CCc4ccccc43)c2)cc1`, the activation was inactive: 9.66%.

In the case of `COc1ccccc1CNC(=O)c1cc2sccc2n1Cc1ccc(Cl)cc1`, the activation was inactive: 0.31%.

Regarding `COc1cccc(-c2noc(C3CC(=O)N(c4ccc(F)cc4)C3)n2)c1OC` (stereo not drawn), the activation is inactive: 25.8%.

With `Cc1ccc(NC(=O)c2ccc3[nH]c(C)cc(=O)c3c2)cc1`, the activation is inactive: 7.33%.

Take `CSc1cccc(NC(=O)c2cccc(N3CCCS3(=O)=O)c2)c1`: the activation is inactive: 9.73%.

For `Cc1ccccc1NC(=O)CSc1nc2ccc(NC(=O)c3cccs3)cc2s1`, the activation was inactive: 10.2%.

With `CCc1ccc(NC(=O)CCn2c(=O)c3cccn3c3ccccc32)cc1`, the activation was inactive: -15.5%.

Regarding `COc1ccc(NC(=O)CSc2ccc3nc(-c4ccccc4)cn3n2)c(OC)c1`, the activation was inactive: -21.5%.

As for `Cc1ccc(-n2nc(CO)c(C(=O)NC(C)CCCc3ccccc3)n2)cc1` (stereo not drawn), the activation is inactive: -0.797%.

As for `CC(C)CC(NS(=O)(=O)c1ccc2c(c1)oc(=O)n2C)C(=O)NCc1ccccc1Cl` (stereo not drawn), the activation is inactive: -5.84%.

With `CCCn1c(=O)sc2cc(NC(=O)c3ccc(OC)c(Br)c3)ccc21`, the activation was inactive: 8.82%.

Turning to `CCCOc1ccc(CN(C(=O)Cc2coc3ccc(CC)cc23)C2CCS(=O)(=O)C2)cc1` (stereo not drawn), the activation was inactive: -31.5%.

As to `CCc1nn2c(=O)cc(COC(=O)CNC(=O)COc3ccc(C)cc3)nc2s1`, the activation is inactive: 0%.

On to `COc1ccc(NC(=O)c2c(NCc3sccc3C)sc3c2CCCC3)c(OC)c1`, for which the activation was inactive: -4.92%.

As to `CCC(=O)N1CCc2cc(S(=O)(=O)CCC(=O)N3CCN(c4ccc(Cl)cc4)CC3)ccc21`, the activation is inactive: 24.5%.

With `Cc1ccc(NC(=O)CN2CCN(S(=O)(=O)c3ccc(C(C)C)cc3)CC2)cc1F`, the activation is inactive: 25.9%.

`Cc1cn(C)c(CC(=O)N2CCN(c3cccc(Cl)c3)CC2)c1C(=O)O`: the activation was inactive: -1.13%.

As for `COc1ccc(Nc2nc(N)nc(N)c2S(=O)(=O)c2ccccc2)cc1`, the activation was inactive: 35.5%.

Turning to `Nc1nc2c(ncn2CCC(CO)CO)c(=O)[nH]1`, the activation is inactive: -17.6%.

Take `CCCN(CCC)C(=O)Cn1c(=O)n(-c2ccc(CC)cc2)c(=O)c2ccc(C(=O)NCCc3ccccc3)cc21`: the activation is inactive: -6.2%.

In the case of `CCOC(=O)c1ccc(Nc2nc3ccc(C(=O)c4ccccc4)cc3n3c(C)nnc23)cc1`, the activation is inactive: -10.2%.

Turning to `O=c1c2ccccc2n(Cc2ccccc2Cl)c(=O)n1CCc1ccccc1`, the activation was inactive: -4.22%.

`Cc1cccc(NC(=O)c2ccc3nc(C(C)C)oc3c2)c1C`: the activation was inactive: -11%.

On to `COc1cccc(NC(=O)CSC2=Nc3ccccc3C3=NC(CCC(=O)NCCc4ccccc4)C(=O)N23)c1` (stereo not drawn), for which the activation was inactive: -8.75%.

Consider `Cc1ccc(-n2cc(C(=O)Oc3cccc(C)c3)c3ccccc3c2=O)cc1`, for which the activation is inactive: -1.71%.

As to `CCCCCOc1ccc(Cn2c(=O)oc3ccccc32)cc1`, the activation is inactive: 11.5%.

Take `COc1cc(Cl)c(NC(=O)CCS(=O)(=O)c2ccc3c(c2)NC(=O)CO3)c(OC)c1`: the activation is inactive: -18.4%.

As to `COc1ccc(-c2cc(C(=O)NCCc3ccccc3)c3c(-c4ccccc4)[nH]nc3n2)cc1OC`, the activation was inactive: -11.4%.

Consider `Cc1ccc(NC(=O)C2CCCN(S(=O)(=O)c3ccc4c(c3)oc(=O)n4C)C2)cc1Cl` (stereo not drawn), for which the activation is inactive: -0.0375%.

For `CCOc1ccc(NC(=O)C(=O)c2cc(C)n(-c3cc(C)cc(C)c3)c2C)cc1`, the activation was inactive: -2.17%.

As to `CC(C)(C)OC(=O)N1CCC(c2c(C(=O)NC3CCN(Cc4ccccc4)CC3)cnn2-c2ccc(F)cc2F)CC1`, the activation is inactive: -13.9%.

Take `COc1ccc(CCNC(=O)c2ccc3c(c2)CCN3S(=O)(=O)c2ccc(C)cc2)cc1`: the activation is inactive: 0.898%.

`CCCOc1ccc(C(=O)OCCN(CC)CC)cc1N`: the activation was inactive: -4.47%.

For the compound `Cc1ccc(Nc2c(-c3ccc(N(C)C)cc3)nc3nc[nH]n23)cc1`, the activation is inactive: -33.5%.

Turning to `COCCCn1c(=N)c(C(=O)NCC2CCCO2)cc2c(=O)n3cc(C)ccc3nc21` (stereo not drawn), the activation is inactive: -8.5%.

Turning to `CC(=O)OCC(=O)[C@H]1CC[C@H]2[C@@H]3CCC4=CC(=O)CC[C@]4(C)[C@H]3CC[C@]12C`, the activation is inactive: -29%.

As to `CC(=O)c1ccc(S(=O)(=O)Nc2ccc(-c3ccc(N4CCCCCC4)nn3)cc2)cc1`, the activation was inactive: -15.3%.

On to `Cc1ccc2c(=O)cc(C(=O)Nc3ccc(S(=O)(=O)N4CCC(C)CC4)cc3)oc2c1C`, for which the activation was inactive: -7.27%.

Turning to `COc1cccc(-c2nn3c(=O)cc(CN4CCN(S(=O)(=O)c5ccc(C)cc5)CC4)nc3s2)c1`, the activation is inactive: -5.37%.

On to `Cc1ccc(CSc2nnc(-n3c(=O)c(C#N)cc4c(=O)n5cccc(C)c5nc43)s2)cc1`, for which the activation was inactive: 20.1%.

As to `COc1cc(C2CC(=O)Nc3c2c(C)nn3-c2nc(C)cc(C)n2)cc(OC)c1O` (stereo not drawn), the activation is inactive: -6.05%.

For `O=C(Cc1ccccc1)Nc1sc2c(c1C(=O)Nc1ccccc1)CCCCC2`, the activation was inactive: -19.6%.

Turning to `COc1ccc(-c2nc3ccccc3n3c(-c4cccc(C)c4)c4c(=O)n(C)c(=O)n(C)c4c23)cc1`, the activation was inactive: -6.27%.

Turning to `CSc1nc(=O)c2c(n1C)NC(=O)CC2c1ccccc1OC(C)C` (stereo not drawn), the activation was inactive: -6.08%.

With `Cc1nn(Cc2ccc(Cl)c(Cl)c2)c(C)c1NC(=O)c1noc2c1CCc1ccccc1-2`, the activation is inactive: 33.7%.

Consider `O=C(CC1(O)C(=O)N(CCc2ccccc2)c2ccc(Br)cc21)c1ccc(F)cc1` (stereo not drawn), for which the activation is inactive: -10.5%.

Regarding `CCc1ccc2c(c1)c(=O)c(S(=O)(=O)c1ccc(Cl)cc1)cn2CC`, the activation is inactive: -9.1%.

For `CCOc1ccc(CCNC(=O)CCCn2c(=O)c3cccn3c3cccnc32)cc1OCC`, the activation is inactive: -19.5%.

`CSc1ccc(CNC(=O)C2CCCN(S(=O)(=O)N(C)c3ccc(F)cc3)C2)cc1` (stereo not drawn): the activation is inactive: -9.18%.

Regarding `COc1cccc(-c2cn3c(n2)sc2cc(C(=O)NCCCc4ccccc4)ccc23)c1`, the activation is inactive: -11.7%.

For the compound `COC(=O)CC1Oc2ccccc2-n2cc(-c3ccc(C)cc3)nc21` (stereo not drawn), the activation is inactive: 1.5%.

`COc1cccc(CNCCSc2nnnn2C)c1OCc1ccccc1`: the activation was inactive: 21.3%.

On to `Nc1c(C(=O)NCc2ccc(Cl)cc2Cl)nnn1Cc1ccc(Br)cc1`, for which the activation is inactive: -6%.

In the case of `CCc1ccc(CNC(=O)c2cc3cc(S(=O)(=O)N4CCCCC4)ccc3n2C)cc1`, the activation was inactive: -6.4%.

For `CCCn1ccc2c(OCC(=O)Nc3cc(C)ccc3C)cccc2c1=O`, the activation was inactive: 34.2%.

As for `Cc1ccc(S(=O)(=O)NCC2CCC(C(=O)NCc3ccc(F)cc3)CC2)cc1` (stereo not drawn), the activation is inactive: -4.76%.

Take `COc1ccc(OCC(=O)Nc2cc(-c3ccccc3F)nn2-c2ccccc2)cc1`: the activation was active: 90.7%.

On to `COC(=O)c1ccc(NC(=O)CSc2nc(C)cc(C)c2C(=O)Nc2ccccc2)cc1`, for which the activation was inactive: -18.1%.

On to `Cc1nc(-c2ccc(S(=O)(=O)Nc3ccc(C#N)cc3)cc2)co1`, for which the activation is inactive: -2.05%.

As for `COc1cc(NS(=O)(=O)c2cnc(N)nc2)cc(OC)c1`, the activation is inactive: -12.7%.

With `CCOc1ccc(/C=C/C(=O)Nc2sc3c(c2C(=O)OC)C(C(=O)OC)CC3)cc1` (stereo not drawn), the activation was inactive: -5.63%.

As to `CCOC(=O)c1cc(C)n(CC2CCC(C(=O)Nc3ccc(C(C)=O)cc3)CC2)c1C` (stereo not drawn), the activation is inactive: -20.7%.

With `COc1cc(C(=O)OCc2cc(=O)n3nc(C4CCCCC4)sc3n2)cc(OC)c1OC`, the activation was inactive: -0.49%.

On to `CCn1nnc2cc(C(=O)Nc3ccc(Cl)cc3C)ccc21`, for which the activation is inactive: -0.0431%.

As to `CCc1cccc(-n2c(=O)c3cccnc3n2CC(=O)NCc2ccccc2)c1`, the activation is inactive: -27.6%.

Consider `O=C(NCCC1=CCCCC1)c1ccc2c(c1)N(Cc1ccccc1F)C(=O)c1ccccc1S2=O` (stereo not drawn), for which the activation was inactive: -12.6%.

`CCCNS(=O)(=O)c1ccc2nc(NC(=O)c3ccc(F)cc3)sc2c1`: the activation is inactive: -19.1%.
